The text below walks through data of PubChem BioAssay AID256 (DTP/NCI, 2004).

Inconclusive results and toxic doses are left out. Certain results were filed several times, with different values. They are shown here; other results are not. There may be further records. Results that share an entry are repeated measurements in other runs, samples, wells, individuals or studies. Records carry a tag for their origin. The letters are not those of the source and start again with each entry.

The test system of the assay is CD2F1 mice, L1210 leukemia ip, survival T/C. The assay is described as follows: NCI In Vivo Anticancer Drug Screen. Data for tumor model L1210 Leukemia (intraperitoneal) in CD2F1 (CDF1) mice. To be noted: higher = longer survival. On the procedure: The antitumor activity of compounds was measured in mice bearing transplantable tumors. Survival or tumor size were measured and the results are expressed as the measurement made in the treated group (T) divided by the measurement made in the vehicle treated control group (C). The tumor model used in this assay is L1210 Leukemia (intraperitoneal) in CD2F1 (CDF1) mice

`C[C@H](N)C(=O)N[C@@H]1[C@H]2C(=C(O)C[C@@H](O)[C@@H]2O)C(=O)O[C@]1(C)C(Cl)Cl`: the T/C (endpoint: median survival time, dose: 3.0 mg/kg/injection, schedule: Q01DX009 (ip), vehicle: saline) is 117 % of control and 192 % of control.
As to `NC(C/[N+]([O-])=N/O)C(=O)O` (stereo not given), the T/C (endpoint: mean survival time, dose: 450.0 mg/kg/injection, schedule: Q04DX003 (ip), vehicle: alkali diluted with saline) was 118 % of control and 179 % of control.
Regarding `O/N=C/C1CCCC[N-]1.O/N=C/C1CCCC[N-]1.O/N=C/C1CCCC[N-]1.[Cu]` (stereo not given), the T/C (endpoint: median survival time, dose: 3.0 mg/kg/injection, schedule: Q03HX024 (ip), vehicle: saline) was 100 % of control and 566 % of control.
As to `CCCOP(=O)(N1CC1(C)C)N1CC1(C)C` (stereo not given), under “endpoint: mean survival time, dose: 50.0 mg/kg/injection, schedule: Q04DX003 (ip), vehicle: saline”, the T/C was 120 % of control and 159 % of control.
For the compound `Nc1nc2ccc(NCc3ccc(C(=O)NC(CCC(=O)O)C(=O)O)cc3)cc2c(=O)[nH]1` (stereo not given), where the note is “endpoint: median survival time, dose: 100.0 mg/kg/injection, schedule: Q01DX009 (ip), vehicle: saline with Tween-80”, the T/C is given as 112 % of control, 121 % of control, 165 % of control.
Consider `CCOC(=O)C1=C(Nc2ccc(OC)cc2)C(N)=NC1=N`, for which the T/C (endpoint: median survival time, dose: 166.7 mg/kg/injection, schedule: Q01DX005 (ip), vehicle: saline) was 113 % of control and 156 % of control.
Consider `Nc1nc(=S)c2ncn(C3CC(O)C(CO)O3)c2[nH]1` (stereo not given), for which the T/C reads like this: (endpoint: mean survival time, dose: 266.0 mg/kg/injection, schedule: Q01DX009 (ip), vehicle: water) 124 % of control and 154 % of control; (endpoint: mean survival time, dose: 320.0 mg/kg/injection, schedule: Q08DX002 (ip), vehicle: saline) 113 % of control [sample A] and 158 % of control [sample B].
As for `NC(=O)c1csc(C2OC(COP(=O)(O)O)C(O)C2O)n1` (stereo not given), where the note is “endpoint: mean survival time, dose: 100.0 mg/kg/injection, schedule: Q01DX005 (ip), vehicle: water”, the T/C is 121 % of control and 186 % of control.
In the case of `CCc1ncnc2cc(OCC3CO3)c(OC)cc12` (stereo not given), the T/C (endpoint: median survival time, dose: 5.0 mg/kg/injection, schedule: Q03DX003 (ip), vehicle: saline) was 117 % of control and 158 % of control.
